Results published in PubChem BioAssay AID686978 (National Center for Advancing Translational Sciences (NCATS), 2013).
Where “and” joins values, the source holds several entries; their conditions need not be identical. Identical values can stand only once. Out of some 420,000 compounds screened, about 64,000 (15%) were called active. This list was built around the results that the source calls inconclusive (neither active nor inactive); the mix of calls is not that of the screen. Calls come from the whole dose curve; as a rule, active = well fitted inhibition curve with a large enough effect; inconclusive = small, poorly fitted or top-dose-only effect; inactive = flat fitted curve, though single readings scatter. Potencies of inconclusive entries are doubtful fits and often do not repeat.

Test: qHTS for Inhibitors of human tyrosyl-DNA phosphodiesterase 1 (TDP1): qHTS in cells in absence of CPT; note: nearly all actives have a fitted effect of over 55% in size
Details: DT40 Tdp1-/- hTDP1 cells, no CPT, ATP luminescence, 48 h; activity change, negative = growth inhibition: at 46.2 µM (top of the series) unless noted
How it was run: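 Stably hTDP1-transfected Tdp1-null chicken DT40 cells were treated with library compounds minus camptothecin and grown for at least 48 hr at 37 °C, after which cellular ATP was quantified by luminescence.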
% is set by controls: 0 for no effect and ±100 for the full control effect; potency is the fitted concentration of half-maximal effect; tags give direction and shape of the fitted curve.

Compound | activity change, negative = growth inhibition | Potency
Cc1ccc2oc(-c3ccc(NC(=O)CC(C)C)cc3)nc2c1 | inactive: -21.8% | 
COc1cc(C2NC(=O)NC(C)=C2C(=O)Nc2cc(C)cc(C)c2)ccc1O (stereo not given) |  | inconclusive: 16.4 µM [inhibitor, single point]
Cc1cc(C)c(NC(=O)CS(=O)CC(=O)N2CCN(c3cccc(C)c3C)CC2)c(C)c1 (stereo not given) |  | inconclusive: 18.4 µM [inhibitor, single point]
Cc1nc2ccc(NC(=O)c3cccc(C(F)(F)F)c3)cc2o1 |  | inconclusive: 25.9 µM [inhibitor, single point]
CCOC(=O)c1c(C)c(-c2ccccc2)n(CC(=O)Nc2cc(OC)cc(OC)c2)c1C |  | inconclusive: 20.6 µM [inhibitor, single point]
CCN(CC)C(=O)Cn1cc(S(=O)(=O)CC(=O)Nc2ccccc2F)c2ccccc21 | inactive: -8.02% | 
COc1ccc(C(=O)N2CCN(Cc3cn[nH]c3-c3ccc(OC)cc3F)CC2)cc1 |  | inconclusive: 29.1 µM [inhibitor, single point]
CCCCn1c(-c2nonc2N)nc2ccccc21 |  | inconclusive: 16.4 µM [inhibitor, partial curve]
Cc1cccc(OCCNS(=O)(=O)c2ccc(Cl)cc2)c1 | inactive: -2.68% | 
CC(C)c1nc(SCC(=O)N2CCCCCC2)c2c(=O)n(C)c(=O)n(C)c2n1 |  | inconclusive: 16.4 µM [inhibitor, single point]
CC1Cc2ccccc2N1C(=O)CSc1nc2ccccc2s1 (stereo not given) |  | inconclusive: 29.1 µM [inhibitor, single point]
O=C(Cc1c(F)c(F)c(F)c(F)c1F)Nc1nc(-c2ccccc2)cs1 |  | active: 16.4 µM
COCC(C)n1c(C)cc(C(=O)CSc2nnc(-c3ccco3)o2)c1C (stereo not given) |  | inconclusive: 23.1 µM [inhibitor, single point]
O=S1(=O)C[C@H](N2CCN(CCO)CC2)[C@@H](COCc2ccccc2)N1 | inactive: 14% | 
COc1ccccc1/C=C/C(=O)NC(=S)N(C)C1CCCCC1 | inactive: -23% | 
Cc1ccccc1CSCCNC(=O)CN(c1ccc2c(c1)OCO2)S(C)(=O)=O |  | inconclusive: 29.1 µM [inhibitor, single point]
COc1cc(SC)ccc1C(=O)N1CCN(Cc2ccccc2)CC1 |  | inconclusive: 6.51 µM [inhibitor, partial curve]
COC(=O)CNC(=O)Nc1cc(C(=O)NCc2ccc(C)cc2)ccc1N1CCCC1 | inactive: -21.5% | 
COCCN(C(=O)Cc1cccs1)C(C(=O)NCc1ccc(OC)cc1)c1ccccc1 (stereo not given) |  | inconclusive: 16.4 µM [inhibitor, partial curve]
CCn1c(=O)n(CC)c2cc(S(=O)(=O)N3CCCCC3)c(C)cc21 | inconclusive: -32.1% [inhibitor] | 
CC(=O)CSc1cc(C)nc2c(-c3ccccc3)c(C)nn12 |  | inconclusive: 6.51 µM [inhibitor, full curve, poor fit]
CCOC(=O)C[C@H]1c2cc(F)ccc2S(=O)(=O)N1C1CCCC1 |  | inactive and inconclusive: 35.5 µM [inhibitor, single point]
c1coc(CNc2nc(N3CCCCC3)nc3ccccc23)c1 |  | active: 18.4 µM
CC(=O)c1sc(N/N=C\c2cccc(Br)c2)nc1C |  | inconclusive: 18.4 µM [inhibitor, single point]

Compound | activity change, negative = growth inhibition | Potency
CCOc1ncccc1C(=O)N(CC)CC(=O)NCc1ccc(F)cc1 | inactive: -10.2% | 
CC(=O)c1ccc(NC(=O)c2noc(C(C)C)c2[N+](=O)[O-])cc1 | inactive: 2.35% | 
Cc1ccc(Cn2nnc3c(=O)n(CC(=O)c4ccccc4)cnc32)cc1 |  | inconclusive: 6.51 µM [inhibitor, full curve]
COC(=O)CC(NC(=O)Nc1ccc(C)cc1)c1cccc([N+](=O)[O-])c1 (stereo not given) | inactive: -8.23% | 
Cc1ccc2c(COC(=O)c3c(C)noc3C)cc(=O)oc2c1 |  | inconclusive: 29.1 µM [inhibitor, single point]
O=S1(=O)CC(N2CCN(Cc3ccccc3F)CC2)CN1Cc1cn(Cc2ccccc2)nn1 (stereo not given) |  | inconclusive: 14.6 µM [inhibitor, partial curve]
CCc1nnc(NC(=O)CN2CCN(Cc3cccc(Cl)c3)CC2)s1 | inactive: -24.2% | 
Cc1ccc2cc(CN(Cc3ccco3)C(=S)NCC3CCCO3)c(=O)[nH]c2c1 (stereo not given) |  | active: 20.6 µM
Cc1ccc(-n2c(O)c(/C=N/n3cnnc3)c3ccccc3c2=O)cc1 |  | inactive
O=C(Nc1ccc(F)cc1F)c1ccc(CN2CC(=O)N3CCCCC3C2=O)cc1 (stereo not given) | inactive: -24.4% | 
COC(=O)C1CCN(S(=O)(=O)c2cc3c4c(c2)C(C)C(=O)N4CCC3)CC1 (stereo not given) | inactive: -15.8% | 
O=[N+]([O-])c1ccccc1OCCCn1cnc2ccccc21 |  | inconclusive: 29.1 µM [inhibitor, single point]
COc1ccc(N=C2S/C(=C\c3ccc(OC(C)C(=O)O)c(OC)c3)C(=O)N2CCc2c[nH]c3ccccc23)cc1 (stereo not given) |  | inconclusive: 25.9 µM [inhibitor, single point]
Fc1cccc(-n2ncc(-c3nnnn3-c3ccccc3)c2C(F)(F)F)c1 | inactive: -23.1% | 
CC(=O)N1c2ccccc2CC1C(=O)N1CCN(c2ccc(F)cc2)CC1 (stereo not given) | inactive: -10.2% | 
COc1ccc(C2CC(C)=C(C#N)S(=O)(=O)C2C#N)cc1 (stereo not given) | inactive: -8.69% | 
Cc1[nH]c2ccccc2c1C(c1ccncc1)N1CCN(c2ccccn2)CC1 (stereo not given) |  | inconclusive: 11.6 µM [inhibitor, partial curve, poor fit]
COc1cc(C(c2sc3ncnn3c2O)N2CCN(c3ccccc3F)CC2)cc(OC)c1OC (stereo not given) |  | inconclusive: 23.1 µM [inhibitor, single point]
CCOC(=O)c1c(NC(=O)CSc2nnc(-c3ccccc3)o2)sc(C(C)=O)c1C |  | active: 23.1 µM
CC1CN(CCC(=O)NC(c2cccnc2)C(F)(F)F)Cc2cc(Cl)ccc2O1 (stereo not given) |  | inconclusive: 29.1 µM [inhibitor, single point]
COc1cc(C(=O)NNC(=S)NC(=O)c2ccccc2C)cc(OC)c1OC |  | inconclusive: 29.1 µM [inhibitor, single point]
CCN(CC)C(=O)c1cc2c(=O)n3cccc(C)c3nc2s1 | inactive: -23.3% | 
O=C(CSc1nc2ccccc2c2nc(-c3ccccc3)nn12)Nc1ccc(Br)cc1 | inactive: -21.4% | 
CC(C)(C)c1cc(C(C)(C)C)c2oc(=O)c(-c3nc4ccccc4[nH]3)cc2c1 |  | active: 8.2 µM

Compound | activity change, negative = growth inhibition | Potency
c1csc(CNc2ncnc3ccc(-c4ccc5c(c4)OCO5)cc23)c1 |  | inconclusive: 10.3 µM [inhibitor, partial curve, poor fit]
COc1ccc(/C=N/n2c(-c3cccs3)n[nH]c2=S)cc1 |  | inconclusive: 23.1 µM [inhibitor, single point]
C[C@H](CO)N1C[C@H](C)[C@@H](CN(C)S(=O)(=O)c2cccs2)Oc2c(NC(=O)Nc3ccc4c(c3)OCO4)cccc2C1=O |  | inconclusive: 18.4 µM [inhibitor, single point]
COCCCNC(=O)Cn1c(=O)n(-c2ccc(C)cc2)c(=O)c2c1c1cc(C)ccc1n2C |  | inconclusive: 13 µM [inhibitor, partial curve]
CCCCCCCCN1C(=O)[C@H](CC(=O)NCc2cccc3ccccc23)C[C@@]2(C(=O)OC)CCCCC=C12 |  | active: 20.6 µM
CCOC(=O)N1CCN(c2ncnc3scc(-c4ccc(Cl)cc4)c23)CC1 |  | inconclusive: 23.1 µM [inhibitor, single point]
CNC(=S)N(C1=NCC(c2ccc([N+](=O)[O-])cc2)S1)c1ccccc1 (stereo not given) |  | inconclusive: 14.6 µM [inhibitor, partial curve, poor fit]
CCS(=O)(=O)N1CC(=O)N(c2ccccc2C)C(C)(C(=O)NC2CCCCC2)C1 (stereo not given) | inactive: -0.406% | 
COc1cccc(N2CCN(C(=O)C3CCC(CNS(=O)(=O)c4ccc(Br)s4)CC3)CC2)c1 (stereo not given) |  | active: 6.51 µM
COc1ccc(CNC(=O)CCNC(=O)N2CCn3c2nc2ccccc23)cc1 | inactive: 2.81% | 
Cc1ccc(NC(=O)CN2CCCN(Cc3cc(C)ccc3C)S2(=O)=O)c(Cl)c1 |  | inconclusive: 18.4 µM [inhibitor, single point]
CCc1nc2ccccc2c(C(=O)OC2CCCCC2=O)c1C (stereo not given) |  | inconclusive: 29.1 µM [inhibitor, single point]
CC(=O)Nc1ccc(NC(=O)C(C)OC(=O)CNS(=O)(=O)/C=C/c2ccc(C)cc2)cc1 (stereo not given) | inactive: 0.213% | 
O=C(CC[C@H]1O[C@@H](n2cnc3c(NC(=O)c4ccccc4)ncnc32)[C@H](O)[C@@H]1O)NCCCN1CCOCC1 | inactive: -9.73% | 
Cc1nnc(N/N=C/c2cccc(OCc3ccc(Cl)c(Cl)c3)c2)n1N |  | inconclusive: 29.1 µM [inhibitor, single point]
O=C(NC(=S)Nc1cccc(O)c1)C1CCCCC1 |  | inconclusive: 29.1 µM [inhibitor, single point]
CC1(C(=O)NCc2ccc(Cl)cc2)CCN1C(=O)Cc1ccc(Cl)cc1Cl (stereo not given) |  | inconclusive: 29.1 µM [inhibitor, single point]
CCCc1nc2ccccc2c(C(=O)OCC(=O)N2CCc3ccccc32)c1CC |  | active: 11.6 µM
O=C(O)/C=C/S(=O)(=O)c1ccc2ccccc2c1 |  | inconclusive: 23.1 µM [inhibitor, single point]
Nn1c(Cc2cccc3ccccc23)nnc1SCc1c(Cl)cccc1Cl |  | active: 16.4 µM
COc1ccc(OC)c(C(=O)c2ccc(C(=O)c3cc(OC)ccc3OC)cc2)c1 |  | inconclusive: 29.1 µM [inhibitor, single point]
CCOc1ccc(OCCC(=O)N(CCOC)c2c(N)n(Cc3ccccc3)c(=O)[nH]c2=O)cc1 | inactive: 15.1% | 
